Reference: the BET-seq Pho4 binding data (Le et al. 2018)
Some of the results follow. Values were computed here from the reads of four pooled replicates and scatter widely.

These sequences were tested against T1, Pho4 (S. cerevisiae) (UniProt P07270) (assay: relative binding free energy (BET-seq); higher = weaker binding). Details: reference: library average.
T1 sequence: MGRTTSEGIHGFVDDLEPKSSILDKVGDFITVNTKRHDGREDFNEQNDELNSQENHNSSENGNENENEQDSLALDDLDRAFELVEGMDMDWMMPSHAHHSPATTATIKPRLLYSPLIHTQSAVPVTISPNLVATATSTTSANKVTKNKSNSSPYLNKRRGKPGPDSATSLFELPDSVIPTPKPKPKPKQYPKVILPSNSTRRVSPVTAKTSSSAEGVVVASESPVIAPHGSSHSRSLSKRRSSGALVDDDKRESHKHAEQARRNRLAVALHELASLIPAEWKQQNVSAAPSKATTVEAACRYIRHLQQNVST

Relative binding free energy, 1.09 kJ/mol:
GTTATCACGTGTCGAG
TTTGTCACGTGAGGTG

Relative binding free energy, 1.55 kJ/mol:
GATTTCACGTGCTGAT

Relative binding free energy, 1.8 kJ/mol:
TTGGTCACGTGACTCG

Relative binding free energy, -0.46 kJ/mol:
TTACACACGTGGGGCT
GGTGGCACGTGCGGGA
TTGAGCACGTGGTTGG
TATGGCACGTGGTTGA

Relative binding free energy, -0.335 kJ/mol:
AGAGGCACGTGTCGGA
CAGTGCACGTGTGTGA
CTTGACACGTGGGTGG
CTAGACACGTGGGTTT
GTGTACACGTGGGAGG
TATTGCACGTGTGCTG

Relative binding free energy, -1.26 kJ/mol:
ACACGCACGTGGGGGG

Relative binding free energy, 0.46 kJ/mol:
AGCGTCACGTGAGGCG
GATTGCACGTGGTTCG
AGGGTCACGTGGCATG

Relative binding free energy, 1.26 kJ/mol:
GAGTTCACGTGTCGTA

Relative binding free energy, 0.293 kJ/mol:
ATGAACACGTGCGGTT
GTGGTCACGTGTATTA
GTAAGCACGTGTGAGC
GTGCTCACGTGGGTTG
TGGCGCACGTGATGTT

Relative binding free energy, 1.38 kJ/mol:
GGGATCACGTGTTCAG

Relative binding free energy, -0.293 kJ/mol:
GGCGCCACGTGGTTTG
TAAGACACGTGGGGAT
TTTTGCACGTGGCGGG

Relative binding free energy, 1.34 kJ/mol:
GTATTCACGTGTGTGT
GGTCGCACGTGAGGGT

Relative binding free energy, -1.13 kJ/mol:
AGCCGCACGTGGGTGG

Relative binding free energy, -1 kJ/mol:
CCTGACACGTGGGGGG

Relative binding free energy, -0.126 kJ/mol:
TAGGACACGTGGTGTC
ATGTCCACGTGGGGTT
GGGGCCACGTGTATAG
TTAGACACGTGGCGGA
GGCGGCACGTGGACAG
TGTGGCACGTGTAGGT
AGGTGCACGTGACGGA

Relative binding free energy, 0.126 kJ/mol:
TTGAACACGTGTATGA
GTGGTCACGTGGCTGC
TGTCACACGTGCTTGT
ATGATCACGTGGGCGG
GGCGGCACGTGGAAAG
GGGTCCACGTGTTATA

Relative binding free energy, 0.251 kJ/mol:
CTGGACACGTGATTGG
AAATACACGTGAGGGT
AGTCTCACGTGCGGGT
GTTTGCACGTGTCTGT
GGGGCCACGTGTTAAT
TAAGACACGTGTGTGA
TGCGTCACGTGGTGCA

Relative binding free energy, 1.88 kJ/mol:
CGATTCACGTGTGTGA

Relative binding free energy, -0.711 kJ/mol:
GTCGGCACGTGGGGTG
ATTTGCACGTGGTTAA

Relative binding free energy, -0.628 kJ/mol:
CGCGGCACGTGTTAGG
TTGGGCACGTGGAGCT
TCTGGCACGTGGATAG

Relative binding free energy, 0 kJ/mol:
TGTGGCACGTGATGGT
TGACACACGTGTGGGT
TTATCCACGTGGGAGT
GGTTGCACGTGTCGGA
ATCTGCACGTGGAAGG

Relative binding free energy, -0.0837 kJ/mol:
CATGTCACGTGTGATT
ATGTGCACGTGTGGCA
GGTTGCACGTGGTTGC
TCTGACACGTGATGGG
ATCAGCACGTGATGTG
TATGGCACGTGGTAAC

Relative binding free energy, 0.0837 kJ/mol:
TCTGGCACGTGTTTGG
GATGCCACGTGGTATG
ATGCGCACGTGTGGGG
ATTGGCACGTGGAGAT
ATGGTCACGTGGCTTT
ATGGTCACGTGCGTCG

Relative binding free energy, -1.38 kJ/mol:
ACAGGCACGTGCGGGG

Relative binding free energy, 0.335 kJ/mol:
TTTTCCACGTGGTTCT
AATTTCACGTGCGGTA
AAGAGCACGTGTGATA
ATTGGCACGTGAACGG
TGGTCCACGTGAGCGG

Relative binding free energy, 0.502 kJ/mol:
CGTTTCACGTGCGTTT
CGGGTCACGTGTGTCG
CCATTCACGTGGGTGT

Relative binding free energy, 0.669 kJ/mol:
AGGGTCACGTGAGGGC
ATGGACACGTGTTAGC
TAATTCACGTGGGACT

Relative binding free energy, 2.3 kJ/mol:
ATAATCACGTGATTTC

Relative binding free energy, 0.92 kJ/mol:
TGGAACACGTGATTTG
GTAGTCACGTGTGGGG
TCGTGCACGTGAAGGA
TCTTTCACGTGGTTTG

Relative binding free energy, -0.418 kJ/mol:
TGCACCACGTGTTGTG
TAGAGCACGTGTATGG
GGGAACACGTGGGAGT
AATACCACGTGTGTGT

Relative binding free energy, 0.837 kJ/mol:
TGCTGCACGTGAAGGA
TCGGACACGTGAGTGA
TTTCACACGTGTAGTG
CTGGTCACGTGGTTCA
TGCAACACGTGAGTGT

Relative binding free energy, 0.418 kJ/mol:
CGAATCACGTGTGTGT
TGGATCACGTGGGACT
CGCTTCACGTGGGTTG
GTATACACGTGTGAAG
GTTCACACGTGGTAGG
CGGTCCACGTGTTCGG

Relative binding free energy, 2.05 kJ/mol:
GGATTCACGTGAAGAG

Relative binding free energy, -0.962 kJ/mol:
AGGGGCACGTGGAGCG
AGTGCCACGTGCGGGG
TAGCGCACGTGGGTTT

Relative binding free energy, 0.753 kJ/mol:
GAAAACACGTGGTGGC
CGGGTCACGTGCATTG
TATTGCACGTGTGAAG

Relative binding free energy, 1.05 kJ/mol:
CGGTTCACGTGGGTTT

Relative binding free energy, -1.05 kJ/mol:
GGACGCACGTGGGATG

Relative binding free energy, 1.46 kJ/mol:
GCGTTCACGTGGCTTT
AGATACACGTGACGGT

Relative binding free energy, 0.167 kJ/mol:
TTGTGCACGTGTTGGC
AAGGACACGTGTTTGG
CGGGTCACGTGCTGGA

Relative binding free energy, -0.0418 kJ/mol:
GGGTGCACGTGTTTAC
ATCGTCACGTGGTCTG
GGTTACACGTGGTTTC
TCGGTCACGTGTGTGA
TGGTCCACGTGTTGGC

Relative binding free energy, 0.0418 kJ/mol:
AGTGTCACGTGGACTT
ATAGTCACGTGGGTCT
GGCGACACGTGGTTTT

Relative binding free energy, -0.586 kJ/mol:
TTTAGCACGTGTTTCG
CCTGACACGTGGTGGG
TGTGCCACGTGGTTAA
ATGCGCACGTGTTGAT
TCTGGCACGTGGTAGA

Relative binding free energy, 1.13 kJ/mol:
CCAGTCACGTGTGGTA
CCGTTCACGTGTTGGA
GAGATCACGTGTTACG

Relative binding free energy, -0.167 kJ/mol:
GTGCGCACGTGTTGGA
TTTGACACGTGGCGAG
TGGTGCACGTGGCTGG
TGTGACACGTGTGGAG

Relative binding free energy, 1.67 kJ/mol:
GCGGTCACGTGAGGTT
AAGTTCACGTGTAGGA

Relative binding free energy, 0.586 kJ/mol:
GCGTTCACGTGTATAG
TGCTACACGTGTCGGG
GGAACCACGTGAGGTG
GGTAACACGTGGGATT

Relative binding free energy, 1.51 kJ/mol:
ATTTGCACGTGAATGG

Relative binding free energy, 1.21 kJ/mol:
ATGGTCACGTGAGATA
AAACGCACGTGAGGGT

Relative binding free energy, 0.377 kJ/mol:
TCCTGCACGTGTAGGG
GACATCACGTGGGGAG
TGATGCACGTGGATTA
TTCTACACGTGTTGCG
CGTGACACGTGATGTG

Relative binding free energy, 0.711 kJ/mol:
GATTGCACGTGTTCGA
GACATCACGTGTGGTG
TGAATCACGTGTGGGG
CATGTCACGTGATGAT
GCGCTCACGTGGGGTG
TCTATCACGTGGTGCG
AGTGGCACGTGAGAGT

Relative binding free energy, -0.502 kJ/mol:
CATATCACGTGGGTTT
GCGTGCACGTGGTGGT
ATGTGCACGTGCGAGT

Relative binding free energy, 1.17 kJ/mol:
GAATTCACGTGTGATG
TGAATCACGTGTATAG

Relative binding free energy, 1.42 kJ/mol:
TAGTACACGTGAGTTG

Relative binding free energy, -0.251 kJ/mol:
ACAAGCACGTGTGTGG
TGTGGCACGTGGTTGG
TGTGGCACGTGCTGAT
ACGGGCACGTGTGTAT

Relative binding free energy, 0.962 kJ/mol:
TTTTACACGTGTTGGC
GAAGGCACGTGAACGG
AATTTCACGTGCGGAT
CGTGTCACGTGAGTGT

Relative binding free energy, -0.753 kJ/mol:
CGGAACACGTGGGTTT
GTGACCACGTGGGCGG

Relative binding free energy, -0.837 kJ/mol:
ACTGGCACGTGTGCGT
TTATACACGTGGGCTG

Relative binding free energy, -0.92 kJ/mol:
AAGGGCACGTGGCTGA
TCTGGCACGTGGGTCG

Relative binding free energy, -0.377 kJ/mol:
TTGTGCACGTGTCCGT
GGACGCACGTGGCTGG
ATTGGCACGTGGTAAA
AGAAGCACGTGTGGTA

Relative binding free energy, -0.209 kJ/mol:
CGGTACACGTGGGGAA
GATAGCACGTGCGGTG
CTGTGCACGTGTCAGG
GTGTGCACGTGCAGGC
TTAGGCACGTGATATA
TGCGACACGTGCAGGG
TTGGGCACGTGCGAGT

Relative binding free energy, 1 kJ/mol:
ATTCACACGTGAGTTT
TTTATCACGTGTCTGC
TGTATCACGTGATGTT
GGAGTCACGTGCATTT
AGGTGCACGTGAAGGT
TGTCTCACGTGTGGAT

Relative binding free energy, 0.209 kJ/mol:
GAGTGCACGTGCGTAG
TTACACACGTGTGTTA
CAGATCACGTGTAGGG
CCAAGCACGTGTGGGT

Relative binding free energy, -0.669 kJ/mol:
ATATACACGTGGTGTA

Relative binding free energy, -0.795 kJ/mol:
GGGAGCACGTGCCGGT
GCGAGCACGTGGGGCA

Relative binding free energy, 0.879 kJ/mol:
CTTTCCACGTGTGGTT
TCGGACACGTGTAAGG
GGTCTCACGTGGAGGG

Relative binding free energy, -1.09 kJ/mol:
AGCAGCACGTGGGGAT
AGTCGCACGTGGGGCT

Relative binding free energy, 1.59 kJ/mol:
GGATTCACGTGAGAGT

Relative binding free energy, -0.879 kJ/mol:
GTAAGCACGTGGTTAA

Relative binding free energy, 0.795 kJ/mol:
TGGCTCACGTGGGAAG
TTGCTCACGTGCGTTG
TTTCACACGTGTGAGA
AGGATCACGTGTGTTT

Relative binding free energy, 0.628 kJ/mol:
TCGTTCACGTGGGGAG
GATTGCACGTGTGCTA
GTGAACACGTGATCGG
GATGTCACGTGGGTTG
TCATGCACGTGAGGAT
GTGGGCACGTGAGTTA
CGGTTCACGTGCTGGT
CTGTACACGTGTGGGA

Relative binding free energy, 0.544 kJ/mol:
ATGTCCACGTGATGTG
TGGTACACGTGTCGCG
TGTATCACGTGCTCTT
ATATTCACGTGGCGGG
TGTTGCACGTGTTAAT
